Source: PMC4336329 (PLoS ONE, 2015)
In all, about 310,000 compounds went through this assay and about 2,200 (0.71%) showed an effect of 50% or more. Effects have a minus sign here. The list shows a part of the results.

target: human ether-à-go-go-related gene (hERG) potassium channel (human, UniProt Q12809); assay: primary screen, population patch clamp on CHO cells stably expressing hERG
Sequence (Q12809 whole entry, looked up): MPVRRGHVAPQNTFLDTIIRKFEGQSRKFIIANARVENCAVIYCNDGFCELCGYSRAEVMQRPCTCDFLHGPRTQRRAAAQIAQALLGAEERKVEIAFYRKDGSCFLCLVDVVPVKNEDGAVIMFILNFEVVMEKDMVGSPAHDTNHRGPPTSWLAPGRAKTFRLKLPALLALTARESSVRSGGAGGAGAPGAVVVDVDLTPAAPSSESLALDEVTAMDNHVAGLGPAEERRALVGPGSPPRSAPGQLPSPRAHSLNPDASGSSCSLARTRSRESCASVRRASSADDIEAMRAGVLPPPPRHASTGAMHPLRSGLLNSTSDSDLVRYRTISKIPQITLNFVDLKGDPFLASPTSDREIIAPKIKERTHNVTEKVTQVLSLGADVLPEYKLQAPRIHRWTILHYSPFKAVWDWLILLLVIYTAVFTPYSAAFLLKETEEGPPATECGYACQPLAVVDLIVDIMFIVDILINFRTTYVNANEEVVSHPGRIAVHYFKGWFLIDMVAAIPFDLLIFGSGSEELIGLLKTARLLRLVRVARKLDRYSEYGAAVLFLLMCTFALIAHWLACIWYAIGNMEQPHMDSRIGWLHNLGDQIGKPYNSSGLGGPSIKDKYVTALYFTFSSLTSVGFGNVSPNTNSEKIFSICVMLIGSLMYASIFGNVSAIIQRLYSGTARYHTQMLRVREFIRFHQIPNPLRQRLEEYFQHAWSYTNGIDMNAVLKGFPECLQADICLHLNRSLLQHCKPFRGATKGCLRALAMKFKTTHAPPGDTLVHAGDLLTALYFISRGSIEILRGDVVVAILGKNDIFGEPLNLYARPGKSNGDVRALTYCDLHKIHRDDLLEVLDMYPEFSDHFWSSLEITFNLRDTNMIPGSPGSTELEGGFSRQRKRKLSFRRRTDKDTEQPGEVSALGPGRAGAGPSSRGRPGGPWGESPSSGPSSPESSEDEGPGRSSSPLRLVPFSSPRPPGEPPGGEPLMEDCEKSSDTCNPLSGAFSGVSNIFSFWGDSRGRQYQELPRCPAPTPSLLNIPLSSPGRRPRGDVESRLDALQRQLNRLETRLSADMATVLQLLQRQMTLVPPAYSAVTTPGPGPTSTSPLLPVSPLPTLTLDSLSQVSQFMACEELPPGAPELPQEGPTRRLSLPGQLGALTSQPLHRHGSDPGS

| Structure (SMILES) | hERG current change (%, negative = inhibition) at 1uM [%] |
| --- | --- |
| CCCCNC(=O)c1cc2cc(OC)ccc2[nH]1 | 12.5 |
| C/C(N)=C(/C#N)C(=O)COC(=O)CNS(=O)(=O)c1ccc(C)cc1 | 21.3 |
| COc1cc(CC(=O)Oc2ccc3c(c2)OCO3)cc(OC)c1OC | 7.82 |
| Cc1cc2cc3c(N)[nH]nc3nc2cc1C | 7.47 |
| CCCCc1ccc(/C(C)=N/Nc2cc(N3CCOCC3)nc(C)n2)cc1 | 9.45 |
| CN(c1cccc(Cl)c1)S(=O)(=O)c1cccc(C(=O)NN2CCOCC2)c1 | 3.07 |
| CCCC1NC(=S)NC(C)=C1C(C)=O (centres unmarked) | 10.6 |
| CCCCC[n+]1ccn(-c2nc3ccccc3nc2[N-]S(=O)(=O)c2ccccc2)c1 | 6.87 |
| CN1C(=O)c2ccc(NC(=O)c3ccc(N4CCCCC4)c([N+](=O)[O-])c3)cc2C1=O | 6.44 |
| CSc1cccc(NC(=S)NC(=O)c2cccnc2)c1 | 9.23 |
| CC(=O)Nc1ccc(C(=O)OCC(=O)NCc2ccccc2)cc1 | 11.3 |
| O=[N+]([O-])c1cc(F)c(N2CCOCC2)cc1N1CCCCC1 | -0.9 |
| CCn1c(=O)cc(C(F)(F)F)[nH]c1=S | 18.6 |
| Cc1cc(C)c2c(=O)[nH]c(SCC(=O)Nc3ccccc3)nc2n1 | 9.87 |
| O=C(c1ccccc1)c1cc2c(cc1[N+](=O)[O-])OCCO2 | 9.76 |
| CC(=O)C1=C(O)C(=O)N(CCCN2CCOCC2)C1c1ccccc1[N+](=O)[O-] (centres unmarked) | 10.2 |
| COc1cccc(Nc2nc(-c3sc(C)nc3C)cs2)c1 | 15.6 |
| COc1ccc(NC(=S)Nc2cc(C)ccn2)c(OC)c1 | 4.77 |
| COc1cc(/C=C(\NC(C)=O)C(=O)N2CCCCC2)ccc1OC(C)=O | 4.85 |
| Cc1cc(C(=O)CSc2n[nH]c(N)n2)c(C)n1C1CC1 | 1.71 |
| COc1ccc(N=NC2=C(O)CC(C)(C)CC2=O)c(OC)c1 | 7.85 |
| CCCCNS(=O)(=O)c1ccc2nc(-c3cccnc3)cc(C(=O)NC3CC3)c2c1 | 5.47 |
| CC(C)CNC(=O)c1coc(=O)c(Br)c1 | 11.7 |

| Structure (SMILES) | hERG current change (%, negative = inhibition) at 1uM [%] |
| --- | --- |
| CCOC(=O)C1(Cc2cccc(Cl)c2)CCCN(C(=O)c2cccnc2)C1 (centres unmarked) | 4.97 |
| O=C(CSc1nnc(COc2ccccc2)n1Cc1ccco1)Nc1ccc2c(c1)OCCO2 | 16.5 |
| COc1ccc(-n2c(O)c(C(C)=NCC3CCCO3)c(=O)[nH]c2=O)cc1 (centres unmarked) | 12.1 |
| COCCCNC(=O)c1ccc(CS(=O)(=O)c2ccccc2OC)o1 | 10.9 |
| COc1ccc(S(=O)(=O)N(CC(=O)NCc2ccco2)C2CCCCC2)cc1OC | -11.4 |
| Cc1cc2n(n1)C(c1ccc(O)cc1)Nc1ccccc1-2 (centres unmarked) | 1.16 |
| COc1ccc(NC(=O)CSc2nnc(-c3ccccc3C)n2N)cc1OC | -10.5 |
| COc1ccc(OCC(=O)Nc2ccccc2OC)cc1 | 5.65 |
| COc1cc(C=O)ccc1OCCOCCOc1c(C)cc(Cl)cc1Cl | 5.73 |
| CCC(=O)c1cc2c(cc1NC(=O)c1ccccc1)OCCO2 | 15.2 |
| COc1ccc(/C=C(/NC(=O)c2cccs2)C(=O)Nc2ccc(C)cc2)cc1OC | 9.65 |
| CCC(Sc1nc(N)cc(=O)[nH]1)C(=O)Nc1cc(C)on1 (centres unmarked) | 13.9 |
| O=c1c(-c2ccc3c(c2)OCCO3)coc2cc(OC3OC(CO)C(O)C(O)C3O)ccc12 (centres unmarked) | 8.54 |
| CCCn1c(C)cc(C(=O)COc2ccc(S(=O)(=O)N(CC)CC)cc2[N+](=O)[O-])c1C | -4.85 |
| CCC(C)[C@H]1CNCCN1CCC12CC3CC(CC(C3)C1)C2 (some centres unmarked) | 14.8 |
| CCN1CCCC1CNC(=O)c1ccccc1Cl (centres unmarked) | -5.07 |
| c1ccc(Oc2cccc(OCCCCN3CCCC3)c2)cc1 | -39.8 |
| CCOC(=O)C(C)Oc1cccc2c(=O)n(CC(=O)NCCc3ccc(OC)c(OC)c3)ccc12 (centres unmarked) | 2.81 |
| CC1Cc2nc(SCC(=O)Nc3nccs3)n(Cc3ccccc3)c(=O)c2S1 (centres unmarked) | 3.53 |
| Cc1ccccc1-n1c(O)c(C=NCCN2CCOCC2)c(=O)[nH]c1=O | 7.05 |
| CCOc1ccc(/C=C2\SC(=S)N(C)C2=O)cc1OC | 12.1 |
| COc1ccc(C(=O)N2CCC(C(=O)Nc3ccc4c(c3)OCO4)CC2)cc1 | -59 |
| CC1(NC(=S)N(CCO)CCO)CCS(=O)(=O)C1 (centres unmarked) | 11 |

| Structure (SMILES) | hERG current change (%, negative = inhibition) at 1uM [%] |
| --- | --- |
| COc1ccc(-c2cc(C(=O)Nc3cc(C)on3)no2)cc1 | 17.3 |
| Cc1cccc(OCCNC(=O)CCc2ccccc2)c1 | 20 |
| COc1ccc(C2c3sc(=O)[nH]c3SCC2C(N)=O)cc1 (centres unmarked) | 9.91 |
| COc1ccc(N2CCN(CC(=O)c3ccc(Cl)cc3)CC2)cc1 | 9.75 |
| COc1ccc(N2CCN(c3ncnc4c3[nH]c3ccccc34)CC2)cc1 | 13.3 |
| COc1ccc(C[C@H]2CN3C(=NC[C@H]3C)N2CCNC(=O)c2ccc(C)c(Br)c2)cc1 | -70.9 |
| COc1ccc(C=Nc2ccc3[nH]ncc3c2)c(O)c1 | 20.6 |
| COc1cccc(C2c3[nH]c4ccccc4c3C[C@H]3C(=O)N(c4ccccc4C(=O)N4CCC[C@H]4C(=O)O)C(=O)N23)c1 (some centres unmarked) | 11.8 |
| CCN(CC)c1ccc2c(cc1=O)[C@@H](NC)CCc1cc(OC)c(OC)c(OC)c1-2 | 10.7 |
| COc1ccc(C(=O)COC(=O)C(CCCCN2C(=O)C3C4C=CC(C4)C3C2=O)N2C(=O)C3C4C=CC(C4)C3C2=O)cc1 (centres unmarked) | -17.5 |
| Cc1cc(C)n2c(SCC(=O)N3CCN(S(=O)(=O)c4ccc(Cl)cc4)CC3)nnc2n1 | 11.7 |
| COc1ccc(S(=O)(=O)N(CC(=O)O)Cc2ccccc2)cc1OC | 14 |
| O=C(CCN1C(=O)/C(=C/c2ccc(Cl)cc2)SC1=S)Nc1cccnc1 | 16.6 |
| CCCCOC(=O)c1ccc(N)cc1 | 11.7 |
| CS(=O)(=O)c1ccc2nc(NC(=O)c3ccc(S(=O)(=O)NCC4CCCO4)cc3)sc2c1 (centres unmarked) | 9.44 |
| O=C(CSc1ccsc1[N+](=O)[O-])N1CCN(c2ccc(Cl)cc2)CC1 | 11.5 |
| CCOc1cc(CO)ccc1OCC(=O)N1CCCCC1 | 10 |
| O=C(CSc1nc(CCC2CCCC2)nc2ccccc12)NCc1ccc2c(c1)OCO2 | 6.82 |
| Cc1ccc(NC(=O)CN(C)C(=O)COC(=O)c2ccc(Cl)cc2O)cc1 | 6.15 |
| COc1cccc(C2C3CN(C)CC=C3C(C#N)=C(N)C2(C#N)C#N)c1OC (centres unmarked) | -1.85 |
| Cc1ccoc1C(=O)N1CCCC(CCC(=O)N2CCN(c3ccccn3)CC2)C1 (centres unmarked) | 7.98 |
| COC(=O)c1ccc(C(=O)OC)c(NC(=O)COC(=O)CC2CC3CCC2C3)c1 (centres unmarked) | 10.2 |
| COc1ccnc(N2CCN(c3ccc(Cl)cc3)CC2)c1C#N | 16.2 |

| Structure (SMILES) | hERG current change (%, negative = inhibition) at 1uM [%] |
| --- | --- |
| NC(=O)c1ccc(NC(=O)CCCc2nc(-c3ccccc3Cl)no2)cc1 | 16.8 |
| O=c1c2ccccc2nc(SCc2cc(F)cc3c2OCOC3)n1Cc1ccco1 | -3.42 |
| COc1ccc(S(=O)Cc2ccc(C(=O)N3CCN(C(=O)c4ccco4)CC3)o2)cc1 (centres unmarked) | 13.6 |
| CC1=C(C)CC(C(=O)NNC(=O)c2ccccc2)C(C(=O)O)C1 (centres unmarked) | 15.6 |
| COc1cccc(C(C)N(C)Cc2nc(-c3ccoc3)oc2C)c1 (centres unmarked) | -5.55 |
| CCc1ccc(OCC(=O)N/N=C(\C)c2ccc(O)cc2O)cc1 | 7.69 |
| COc1ccc(Cl)cc1NC(=O)NCCN1CCCCC1 | 10.9 |
| O=C(Nc1ccccc1)c1ccc(S(=O)(=O)NCc2ccco2)cc1 | 7.71 |
| COc1ccc(OC)c(S(=O)(=O)Nc2cccc(O)c2)c1 | 10.3 |
| c1ccc2oc(-c3csc(N4CCOCC4)n3)cc2c1 | 6.36 |
| COCCNC(=O)CSc1nnc(-c2ccccc2)c(-c2ccccc2)n1 | 9.15 |
| Cc1ccc(C(C)NC(=O)c2cccs2)cc1 (centres unmarked) | 6.94 |
| NNc1nc(Nc2ccccc2)nc(N2CCCCC2)n1 | 12.2 |
| COc1ccc(C(=O)c2ncc(C(F)(F)F)cc2Cl)cc1 | 6.95 |
| CCc1c(C)nc2c(-c3ccccc3)c(C)nn2c1Nc1ccc(NC(C)=O)cc1 | 10.2 |
| Cc1ccc(CC(=O)NCCCn2ccnc2)cc1 | 3.98 |
| Cc1ccc(NC(=O)COC(=O)c2ccc(Cl)cc2)cc1S(=O)(=O)N(C)C | 7.25 |
| C=CCN(CC(=O)NCc1ccc(OC)cc1)C(=O)c1csnn1 | 5.05 |
| O=C(NC(Cc1ccccc1)C(=O)O)/C(=C\c1ccco1)NC(=O)c1ccc(Br)cc1 (centres unmarked) | 0.338 |
| N#CCOc1ccc2oc(-c3ccco3)cc(=O)c2c1 | -6.35 |
